Measured values published in PubChem BioAssay AID2675 (National Center for Advancing Translational Sciences (NCATS), 2010).
In all, about 280,000 compounds went through this assay and about 100 (0.036%) were called active. This list was built around the results that the source calls inconclusive (neither active nor inactive); the mix of calls is not that of the screen. Calls follow the shape of the dose curve; as a rule, active = well fitted inhibition curve with a large enough effect in the signal ratio, with a control signal flat (not every such curve was filed as active); inconclusive = small, poorly fitted or top-dose-only effect, or effect the other way, or a change in a side signal; inactive = no such curve, though single readings can be large or run the other way; the % refers to the signal ratio. Potencies of inconclusive entries are doubtful fits and often do not repeat. A note “side channel” means that the fit belongs to a control or component signal, not to the main read-out.
% is scaled to controls: 0 for no effect and ±100 for the full control effect; potency is read from the fitted curve at half-maximal effect; tags tell the direction and shape of the fitted curve or compound fluorescence and quenching.

These compounds were tested against Muscleblind-like protein 1 (Homo sapiens) (UniProt Q9NR56) (assay: qHTS Assay for Inhibitors of MBNL1-poly(CUG) RNA binding). Conditions: TR-FRET MBNL1-His/biotin-(CUG)12 binding, 665/545 ratio; activity change, negative = inhibition: at 57.5 µM (top of the series).
Chain of UniProt Q9NR56 (Q9NR56 whole entry, looked up): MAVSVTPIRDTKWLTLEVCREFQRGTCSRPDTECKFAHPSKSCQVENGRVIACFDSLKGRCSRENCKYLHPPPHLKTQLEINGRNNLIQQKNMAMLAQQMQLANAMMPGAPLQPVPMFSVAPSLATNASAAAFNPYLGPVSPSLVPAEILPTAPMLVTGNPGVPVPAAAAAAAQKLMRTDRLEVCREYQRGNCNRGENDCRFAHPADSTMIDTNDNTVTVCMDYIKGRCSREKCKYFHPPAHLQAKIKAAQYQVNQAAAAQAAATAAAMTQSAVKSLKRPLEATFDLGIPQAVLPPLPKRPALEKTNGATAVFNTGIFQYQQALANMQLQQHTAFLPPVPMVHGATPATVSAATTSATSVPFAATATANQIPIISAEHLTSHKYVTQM
Procedure, shortened: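 Ratiometric TR-FRET (665 over 545 nm, excitation 340 nm) tracks disruption of MBNL1-His/biotin-(CUG)12 complex after 60 min at room temperature, with compounds at 92 nM to 58 uM final.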
With `O=C1OC(c2ccc([N+](=O)[O-])cc2)=N/C1=C/N1CC2CC(C1)c1cccc(=O)n1C2` (stereo not given) the Potency was inconclusive: 3.55 µM [quencher, side channel, full curve].
With `Cc1ccc(C(=O)O)cc1N=Nc1c(O)[nH]c(=O)[nH]c1=O` the Potency was inconclusive: 11.2 µM [quencher, side channel, partial curve].
`CCCn1nnc(NC(=O)COc2ccc(CC)cc2)n1` was tested, and the Potency was inconclusive: 5.01 µM [quencher, side channel, single point].
With `Cc1cc(C=C2C(=O)N(C)C(=S)N(C)C2=O)c(C)n1-c1cccnc1` the Potency was inconclusive: 12.6 µM [quencher, side channel, partial curve].
With `C=CCn1c(O)c(C=Nc2ccc(N(CC)CC)cc2)c(=O)[nH]c1=O` the Potency was inconclusive: 11.2 µM [quencher, side channel, partial curve].
`C=C1C(=O)O[C@@H]2C[C@@H](C)[C@H]3C=CC(=O)[C@]3(O)C[C@@H]12` was tested, and the “activity change, negative = inhibition” value was inactive: -0.136%.
For `Cn1ncnc2c(=O)n(C)c(=O)nc1-2`, the Potency was inconclusive: 2.24 µM [quencher, side channel, full curve].
`Cc1nc(NS(=O)(=O)c2cccc([N+](=O)[O-])c2)sc1C(C)(C)C` was tested, and the Potency was inconclusive: 14.1 µM [quencher, side channel, partial curve].
`O=C1NC(=O)N(CCc2ccc(F)cc2)C(=O)/C1=C/c1ccco1` was tested, and the “activity change, negative = inhibition” value was inactive: 5.74%.
With `CCOC(=O)[C@]1(C#N)[C@@H]2C=CC(C(N)=O)=CN2[C@@H](C(N)=O)[C@@H]1c1ccc(F)cc1` the Potency was inconclusive: 22.4 µM [quencher, side channel, partial curve].
For `CC(=O)C1C2c3ccccc3OC1(C)N=c1s/c(=C/c3cn(C)nc3C)c(=O)n12` (stereo not given), the Potency was inconclusive: 12.6 µM [quencher, side channel, partial curve].
For `CC1(C)OC(c2ccccc2)=C/C(=C/C=C2C(=O)NC(=S)NC2=O)O1`, the Potency was inconclusive: 15.8 µM [quencher, side channel, partial curve].
`N#CCCn1cc(C=C2C(=O)NC(=O)NC2=O)c(-c2ccccc2)n1` was tested, and the “activity change, negative = inhibition” value was inactive: 6.6%.
In the case of `O=C(c1ccco1)C12CN3CN(CN(C3)C1)C2`, the Potency was inconclusive: 3.98 µM [quencher, side channel, single point].
`O=c1c2ccc(Cl)cc2[nH]c(=S)n1-c1cccnc1` was tested, and the “activity change, negative = inhibition” value was inactive: -5.83%.
In the case of `CC1(C)C(C(=O)NN2C(=O)c3ccccc3C2=O)C1(C)C`, the Potency was inconclusive: 31.6 µM [quencher, side channel, single point].
With `Cc1cccc(-n2c(C)nc3ccc(Cl)cc3c2=O)c1` the “activity change, negative = inhibition” value was inactive: 6.72%.
For `CN1C[C@H](CO)C=C2c3cccc4[nH]cc(c34)C[C@H]21`, the Potency was inconclusive: 3.98 µM [quencher, side channel, full curve].
With `N#CCCn1cc(C(=O)Nc2ccc(F)cc2)c(-c2ccc([N+](=O)[O-])cc2)n1` the Potency was inconclusive: 2.82 µM [quencher, side channel, single point].
`O=C(Oc1ccc(C(=S)N2CCOCC2)cc1)c1ccc([N+](=O)[O-])cc1[N+](=O)[O-]` was tested, and the Potency was inconclusive: 1.12 µM [quencher, side channel, full curve].
In the case of `CN(N=O)c1cc(O)ccc1O`, the Potency was inconclusive: 12.6 µM [quencher, side channel, partial curve].
In the case of `COc1ccc(N2C(=O)NC(=O)/C(=C/c3ccc([N+](=O)[O-])s3)C2=O)cc1`, the Potency was inconclusive: 31.6 µM [quencher, side channel, partial curve].
`COc1cc(/C=C/c2nc3ccccc3c(=O)n2-c2ccccc2O)ccc1O` was tested, and the “activity change, negative = inhibition” value was inactive: 9.71%.
With `O=C1NC(=O)C(=Cc2cn(CCOc3ccc4c(c3)OCO4)c3ccccc23)C(=O)N1` the “activity change, negative = inhibition” value was inactive: -6.97%.
`C[n+]1c2ccccc2nc2ccc(NCCO)cc21` was tested, and the Potency was inconclusive: 1.41 µM [quencher, side channel, full curve].
`COCCCn1c(N)c(C(=O)NCc2ccco2)c2nc3ccccc3nc21` was tested, and the Potency was inconclusive: 20 µM [quencher, partial curve].
For `CCOP(=O)(Oc1ccccc1)c1c([N+](=O)[O-])cc(C(F)(F)F)cc1[N+](=O)[O-]` (stereo not given), the Potency was inconclusive: 15.8 µM [quencher, side channel, partial curve].
With `CCOCCc1c(O)[nH]c(=S)[nH]c1=O` the Potency was inconclusive: 3.16 µM [quencher, side channel, single point].
For `CC(C)N1CC=C(c2c[nH]c3ccccc23)CC1`, the Potency was inconclusive: 25.1 µM [quencher, single point].
`CC1CN(c2ccc([N+](=O)[O-])c(N3CCCCC3)c2)CCN1` (stereo not given) was tested, and the Potency was inconclusive: 20 µM [quencher, side channel, partial curve].
`COc1ccc(C2SCC(=O)Nc3c2c(C)nn3-c2ccccc2)cc1` (stereo not given) was tested, and the “activity change, negative = inhibition” value was inactive: -0.561%.
With `COc1ccc2cc(C(=O)C3CCCN(C4CCOCC4)C3)ccc2c1` (stereo not given) the Potency was inconclusive: 20 µM [quencher, side channel, single point].
With `N#CC1=C(N)Oc2c(c(=O)sc3ccccc23)C1c1cccnc1` (stereo not given) the “activity change, negative = inhibition” value was inactive: -3.81%.
`COc1cc(C=C2C(=O)NC(=O)NC2=O)ccc1OCc1ccc([N+](=O)[O-])cc1` was tested, and the Potency was inconclusive: 15.8 µM [quencher, partial curve].
In the case of `CN(C)/C=c1\sc2c(C#N)cc(C(=O)c3ccc(Br)cc3)n2c1=O`, the Potency was inconclusive: 11.2 µM [quencher, side channel, partial curve].
For `O=C1/C(=C\c2cc3c(cc2Br)OCO3)N2CCC1CC2`, the Potency was inconclusive: 11.2 µM [quencher, side channel, partial curve].
For `O=C1NC(=S)NC(=O)C1=Cc1ccc2c(c1)CCN2CCCCl`, the Potency was inconclusive: 25.1 µM [quencher, side channel, single point].
`O=c1c2ccccc2nc(/C=C/c2cccnc2)n1Cc1ccccc1` was tested, and the Potency was inconclusive: 31.6 µM [quencher, side channel, single point].
With `Cn1cc([N+](=O)[O-])c(C(=O)Nc2ccc3c(C(F)(F)F)cc(=O)oc3c2)n1` the Potency was inconclusive: 14.1 µM [quencher, side channel, partial curve].
In the case of `Clc1ccc(C2NCCc3[nH]cnc32)cc1` (stereo not given), the Potency was inconclusive: 0.0112 µM [fluorescent, side channel, full curve].
For `Cc1c(N=Nc2c(O)[nH]c(=S)[nH]c2=O)c(=O)n(-c2ccccc2)n1C`, the Potency was inconclusive: 7.08 µM [activator, single point].
For `O=[N+]([O-])c1ccc(C2C3C(c4ccccc4)=NC4(CCCC4)N32)cc1` (stereo not given), the “activity change, negative = inhibition” value was inactive: 10.3%.
For `CN1CCc2nc(SCC(=O)OC(C)(C)C)c(C#N)cc2C1`, the Potency was inconclusive: 12.6 µM [quencher, side channel, partial curve].
For `O=C(c1ccccc1)c1cn(CC(=O)N2CCOCC2)c2ccccc12`, the “activity change, negative = inhibition” value was inactive: -2.68%.
`CC(C)c1ccc(-n2c(O)c(/C=N/NC(=O)c3ccccc3O)c(=O)[nH]c2=S)cc1` was tested, and the Potency was inconclusive: 25.1 µM [quencher, side channel, single point].
In the case of `O=C1OC(c2ccc(Br)cc2)=N/C1=C\N1CC2CC(C1)c1cccc(=O)n1C2` (stereo not given), the Potency was inconclusive: 25.1 µM [quencher, partial curve].
`Cc1[nH]c2ccccc2c1C1=CCNCC1` was tested, and the Potency was inconclusive: 22.4 µM [quencher, side channel, single point].
With `CCN1CC=C(c2c[nH]c3ccccc23)CC1` the “activity change, negative = inhibition” value was inactive: 15.8%.
With `CCOc1cc(C=C2C(=O)NC(=O)NC2=O)cc([N+](=O)[O-])c1O` the Potency was inconclusive: 15.8 µM [quencher, side channel, partial curve].
With `CCCCCCn1c(N)c(C(=O)NCCN2CCOCC2)c2nc3ccccc3nc21` the Potency was inconclusive: 17.8 µM [quencher, side channel, single point].
In the case of `COc1ccc(NC(=S)NC(NC(=O)CF)C(Cl)(Cl)Cl)c([N+](=O)[O-])c1` (stereo not given), the Potency was inconclusive: 25.1 µM [quencher, side channel, single point].
`CCN(CCO)c1ccc(N=Cc2c(O)n(C)c(=S)[nH]c2=O)cc1` was tested, and the Potency was inconclusive: 15.8 µM [quencher, side channel, partial curve].
`Cc1ccc(CN2C3CCCC2CC(NC(=S)NCc2ccccc2)C3)cc1` (stereo not given) was tested, and the “activity change, negative = inhibition” value was inactive: 0.22%.
`COc1ccc(CCNC(=O)COC(=O)Cc2ccccc2)cc1` was tested, and the Potency was inconclusive: 7.08 µM [fluorescent, side channel, full curve].
`CN1CCN(c2ccc([N+](=O)[O-])c(Sc3nncn3C)c2)CC1` was tested, and the Potency was inconclusive: 14.1 µM [quencher, side channel, partial curve].
For `N#CCCn1cc(C(=O)Nc2ccc([N+](=O)[O-])cc2)c(-c2ccc3c(c2)OCCO3)n1`, the Potency was inconclusive: 12.6 µM [quencher, side channel, partial curve].
For `CN(C)CC1CSCCC1(O)c1ccccc1Cl` (stereo not given), the Potency was inconclusive: 1 µM [quencher, side channel, single point].
For `Cc1cccc(CN(C)C)c1OC(=O)N(C)C`, the Potency was inconclusive: 8.91 µM [quencher, side channel, single point].
`O=c1[nH]c(O)c(N=Nc2ccc(SC(F)F)cc2)c(=O)[nH]1` was tested, and the Potency was inconclusive: 3.98 µM [quencher, side channel, partial curve].
`O=C1NC(=O)N(Cc2ccc(F)cc2)C(=O)/C1=C\c1ccc([N+](=O)[O-])s1` was tested, and the Potency was inconclusive: 11.2 µM [quencher, side channel, partial curve].
